# Measured values reported in PubChem BioAssay AID504832 (National Center for Advancing Translational Sciences (NCATS), 2011).
# In all, about 310,000 compounds went through this assay and about 18,000 (5.8%) were called active. The inconclusive results got no clear call from the source; some entries with a clear call stand among them for comparison. Calls follow the shape of the dose curve; as a rule, active = well fitted inhibition curve with a large enough effect; inconclusive = small, poorly fitted or top-dose-only effect, or another doubt; inactive = no such curve, though single readings can be large or run the other way. Potencies of inconclusive entries are left out as doubtful fits.
# Experiment: Primary qHTS for delayed death inhibitors of the malarial parasite plastid, 48 hour incubation
# Conditions: P. falciparum luciferase growth in erythrocytes; series mostly up to 28.7 µM; activity change, negative = inhibition: at the top concentration
# In short: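 First compound was added to culture medium, then infected red cells at 0.1% parasitemia and 2% hematocrit (final). After incubation at 37 C under 5% CO2, luciferase detection reagent was dispensed and light output recorded.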
# % is scaled to controls: 0 for no effect and ±100 for the full control effect; potency is read from the fitted curve at half-maximal effect; tags tell the direction and shape of the fitted curve.
Structure (SMILES),"activity change, negative = inhibition",Potency
O=C(O)C=C(Br)Br,inactive: 30.6%,–
S=C(NC1CCCCC1)N1CCn2cccc2C1c1ccncc1 (centres undefined),–,"inconclusive [inhibitor, partial curve, poor fit]"
CC(C)CN(C(=O)c1ccc2c(c1)OCO2)C1CCS(=O)(=O)C1 (centres undefined),inactive: 15.5%,–
O=C(CSc1nc(C2CC2)nc2ccccc12)N1CCCCC1,–,"inconclusive [inhibitor, partial curve, poor fit]"
CCOC(=O)N1CCN(C(=O)C(=O)N/N=C/c2ccc(OC)cc2OC)CC1,inactive: -5.25%,–
Cc1c(-c2ccccc2)c(=O)oc2cc(O)ccc12,–,"inconclusive [inhibitor, partial curve, poor fit]"
S=C(NCC(c1ccco1)N1CCCC1)Nc1ccccc1 (centres undefined),–,"inconclusive [inhibitor, full curve, poor fit]"
CCOC(=O)c1c(NC(=O)/C=C/C(=O)O)sc(C)c1-c1ccc(Cl)cc1,–,"inconclusive [inhibitor, single point]"
O=C(c1cc(-c2cccs2)nc2ccccc12)N1CCN(CCO)CC1,inactive: 43.3%,–
COc1ccc(-c2cc(C(=O)N3CCN(S(=O)(=O)c4ccccc4)CC3)[nH]n2)cc1,–,"inconclusive [inhibitor, partial curve, poor fit]"
CCNC(=S)N(CCc1c(C)[nH]c2ccccc12)Cc1cc(OC)c(OC)c(OC)c1,–,"inconclusive [inhibitor, partial curve]"
COc1ccccc1NC(=S)N(Cc1ccc(C(=O)O)cc1)Cc1ccc(OC)c(OC)c1,–,"inconclusive [inhibitor, single point]"
NS(=O)(=O)c1ccc(CCNC(=O)C2CC(=O)N(Cc3ccccc3Cl)C2)cc1 (centres undefined),inactive: 7.64%,–
CCNC(=S)N1CCc2cc(OC)c(OC)cc2C1COc1ccccc1OC (centres undefined),–,"inconclusive [inhibitor, partial curve]"
O=C(CSCc1cccc(Br)c1)N/N=C/c1ccc2c(c1)OCO2,inactive: -12.3%,–
CCOc1ccccc1NC(=O)CCCc1ccc(OC)c(C)c1,–,"inconclusive [inhibitor, partial curve, poor fit]"
O=C1/C(=C/c2ccsc2)N2CCC1CC2,–,"inconclusive [inhibitor, full curve, poor fit]"
C=CCn1c(CCNC(=O)c2ccccc2F)nnc1SCC(=O)Nc1nc(C)cs1,–,"inconclusive [inhibitor, partial curve, poor fit]"
O=C(c1ccc(F)cc1F)N1CCN(S(=O)(=O)c2ccc3c(c2)OCCO3)CC1,–,"inconclusive [inhibitor, single point]"
